{
  "source": "patent US11135177B2",
  "about": "“Methods of making and using compositions comprising flavonoids” (VIZURI HEALTH SCIENCES CONSUMER HEALTHCARE, INC., priority 2009, dated 2021)",
  "key": {"[1]": {"assay": "Solubility in molten vitamins B5 / B3"}, "[2]": {"assay": "Particle size distribution (static light scattering / Malvern Mastersizer)", "assay_type": "physicochemical", "conditions": "unprocessed powder"}, "[3]": {"assay": "Qualitative assessment of hydrated flavonoid suspension in Aqueous Phase Lotion diluted with water", "assay_type": "physicochemical", "conditions": "hydrated flavonoid 1.25% in APL; 5 ml of lotion in 150 ml of water"}, "[4]": {"assay": "Apigenin solubility in alkaline solutions and alkaline glycerin", "conditions": "sodium hydroxide solution, aqueous buffer, thermodynamic from solid, Apigenin Solubility (mg/ml)"}, "[5]": {"assay": "Scanning electron microscopy morphology", "assay_type": "physicochemical", "conditions": "SEM"}, "[6]": {"assay": "Thermal stability of PS80 heated with apigenin (mass spectroscopy)", "assay_type": "physicochemical", "conditions": "heated to ~250-300° C., compared with unheated control"}},
  "data": [
    {"compound": "O=c1cc(-c2ccc(O)cc2)oc2cc(O)cc(O)c12", "note": "[apigenin, 4′,5,7,-trihydroxyflavone]", "values": [
      {"measurement": "solubility in molten D,L Panthenol", "setting": "[1]; molten D,L Panthenol, approximately 65° C.", "value": "readily dissolved"},
      {"measurement": "solubility in molten niacinamide (Vitamin B3)", "setting": "[1]", "value": "readily soluble"},
      {"measurement": "particle size of the very large distribution", "setting": "[2]", "value": "around 40 microns"},
      {"measurement": "Evidence of Nano Particles", "setting": "[3]", "value": "Yes"},
      {"measurement": "Particulate Settling After 3 hours", "setting": "[3]", "value": "None"},
      {"measurement": "solubility", "setting": "[4]; NaOH 0.75 M", "value": "> 150", "unit": "mg/mL"},
      {"measurement": "solubility", "setting": "[4]; NaOH 1.015 M", "value": "> 200", "unit": "mg/mL"},
      {"measurement": "solubility", "setting": "[4]; NaOH 2.0 M", "value": "> 300", "unit": "mg/mL"}
    ]},
    {"compound": "O=c1cc(-c2ccc(O)cc2)oc2cc(O)cc(O)c12", "note": "[hydrated apigenin]", "values": [
      {"measurement": "solubility in molten niacinamide (Vitamin B3)", "setting": "[1]", "value": "readily soluble"},
      {"measurement": "aspect ratios", "setting": "[5]", "value": "greater than 20"},
      {"measurement": "fiber diameters", "setting": "[5]", "value": "30-500 nm"}
    ]},
    {"compound": "O=c1cc(-c2ccc(O)c(O)c2)oc2cc(O)cc(O)c12", "note": "[luteolin, 3′,4′,5,7-tetrahydroxyflavone]", "values": [
      {"measurement": "Particulate Settling After 3 hours", "setting": "[3]", "value": "None/"}
    ]},
    {"compound": "polyoxyethylene (20) sorbitan monooleate [PS 80]", "values": [
      {"measurement": "degradation on heating with apigenin", "setting": "[6]", "value": "did not significantly degrade"}
    ]}
  ]
}
